# Data as given in PubChem BioAssay AID686979 (National Center for Advancing Translational Sciences (NCATS), 2013).
# Where “and” joins values, the source holds several entries; their conditions need not be identical. Equal values may be shown once. Among all 420,000 compounds or so, about 50,000 (12%) were called active. Inconclusive results, whose numbers are uncertain, are shown with a selection of clear calls. The call rests on the fitted dose curve; in most records, active means well fitted inhibition curve with a large enough effect; inconclusive means small, poorly fitted or top-dose-only effect; inactive means flat fitted curve, though single readings scatter. Potencies beside an inconclusive call are fits to weak or partial responses and may not hold up.
# Experiment: qHTS for Inhibitors of human tyrosyl-DNA phosphodiesterase 1 (TDP1): qHTS in cells in presence of CPT; further: nearly all actives have a fitted effect of over 55% in size
# Conditions: chicken DT40 Tdp1-/-;hTDP1 cells + 20 nM CPT, ATP luminescence, 48 h; activity change, negative = growth inhibition: at 46.2 µM (top of the series) unless noted
# Method in brief: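 Chicken DT40 Tdp1-/- cells stably complemented with human TDP1 were seeded at 400 cells/well in medium containing 20 nM camptothecin, exposed to pin-transferred compounds, and grown at 37 °C for at least 48 hr. Viability was read as ATP luminescence.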
# On the % scale 0 is the no-effect control and ±100 the full control effect; potency means the concentration at half of the fitted maximal effect; tags describe the fitted curve by direction and shape.
SMILES,"activity change, negative = growth inhibition",Potency
COC(=O)C1CCN(C2CN(Cc3ccc(C)cc3)S(=O)(=O)C2)CC1 (stereo not given),inactive: 7.47%,
CCCCn1c(=O)c(C(C)=O)c(O)c2ccccc21,,"inconclusive: 29.1 µM [inhibitor, single point]"
Cc1cccc2sc(NS(=O)(=O)c3ccccc3)nc12,,"inconclusive: 14.6 µM [inhibitor, partial curve, poor fit]"
COc1ccc(/C=C2\C(=O)NCC(=O)N2Cc2ccccc2)cc1,,active: 14.6 µM
CCOc1ccc(C(=O)Nc2ccc(-n3nncc3-c3ccccc3)cc2)cc1OCC,,active: 18.4 µM
CO[C@H]1[C@H](NC(=O)c2cccc(F)c2)c2ccccc2C12CCN(Cc1ccco1)CC2,inactive: -2.54%,
CC(=O)Nc1ccc(NC(=O)CCn2c(=S)oc3ccccc32)cc1,inactive: -9.68%,
c1ccc(Cc2nnc(N3CCCCC3)c3ccccc23)cc1,inactive: -28.4%,
CSc1ccccc1NC(=O)c1cc2ncc(Br)cn2n1,inactive: -25.2%,
CCOc1ccc(C(=O)N[C@H](C(=O)Nc2ccc(S(=O)(=O)Nc3nccs3)cc2)C(C)C)cc1,inactive: 10.8%,
CCCc1nnc(NC(=O)c2cn(CC)c3cc(N4CCN(C)CC4)c(F)cc3c2=O)s1,inactive: 14.2%,
O=C(c1ccc(N2CCN(C(=O)c3ccc(F)cc3F)CC2)cc1)c1cccc(F)c1,,"inconclusive: 25.9 µM [inhibitor, single point]"
Cn1nc(C(F)(F)F)c(C(=O)Nc2ccc(C(F)(F)F)cc2)c1Cl,,"inconclusive: 20.6 µM [inhibitor, single point]"
CC(Oc1ccccc1)C(=O)N[C@@H]1C(=O)N2C(C(=O)OCC3CCCCC3)C(C)(C)S[C@H]12 (stereo not given in full),inactive: -6.96%,
CCOc1cc(C2NC(=O)N(C)C(C)=C2[N+](=O)[O-])ccc1OC(C)=O (stereo not given),inactive: -6.87%,
CCC(NC(=O)Nc1cc(OC)ccc1OC)c1c(-n2cccc2)sc2c1CCN(CC)C2 (stereo not given),,"inconclusive: 18.4 µM [inhibitor, single point]"
C1CCC(c2nn3c(-c4n[nH]c5c4CCC5)nnc3s2)CC1,,"inconclusive: 32.6 µM [inhibitor, single point]"
Cc1ccccc1CNC(=O)Cn1cnc(S(=O)(=O)N2CCCC2)c1,inconclusive: -0.885% [inhibitor],
CCc1ccc(C(=O)CN2C(=O)NC3(CCc4ccccc43)C2=O)cc1 (stereo not given),,"inconclusive: 23.1 µM [inhibitor, single point]"
CN(CC(=O)Nc1ccc(Cl)cc1)C(=O)c1cccc(S(=O)(=O)NCc2ccccc2)c1,,"inconclusive: 29.1 µM [inhibitor, single point]"
CCc1ccccc1N(C)S(=O)(=O)c1ccc(-c2cc(C)no2)s1,,active: 2.06 µM
O=C(c1cncc(Br)c1)N1CCc2ccccc2C1,,"inconclusive: 6.51 µM [inhibitor, partial curve]"
Cc1cc(C)cc(N(CC(=O)N2CCN(Cc3ccccc3)CC2)S(=O)(=O)c2c(C)noc2C)c1,,"inconclusive: 29.1 µM [inhibitor, single point] and inconclusive: 35.5 µM [inhibitor, single point]"

SMILES,"activity change, negative = growth inhibition",Potency
Cc1oc2ccc(O)c(CN3CCN(C)CC3)c2c1C(=O)Nc1cccc(C(F)(F)F)c1,,active: 14.6 µM
COc1ccccc1C(=O)n1nc(-c2ccco2)nc1SC,,"inconclusive: 29.1 µM [inhibitor, single point]"
Cc1cccc(NC(=O)c2sc3nc4c(c(-c5cccs5)c3c2N)CN(C)CC4)c1,,"inconclusive: 25.9 µM [inhibitor, single point]"
c1ccc2cc3c(NCCN4CCOCC4)ccnc3cc2c1,,"inconclusive: 23.1 µM [inhibitor, single point]"
Cc1onc(-c2ccccc2Cl)c1C(=O)NNC(=O)C1CCN(Cc2ccccc2)CC1,inactive: 4.3%,
CCOC(=O)N1CCN(Cc2nc(-c3ccc(C)cc3)no2)CC1,,"inconclusive: 6.31 µM [inhibitor, full curve]"
COc1cccc(CNC(=O)C2(c3cccs3)CCOCC2)c1,inactive: -3.12%,
Cc1cc(S(=O)(=O)N2CCN(c3ccccc3F)CC2)ccc1-n1cnnn1,,"inconclusive: 20.6 µM [inhibitor, single point]"
O=C(COc1ccccc1/C=C1\SC(=O)NC1=O)Nc1ccccc1,,"inconclusive: 8.2 µM [inhibitor, partial curve, poor fit]"
COc1ccc(OC)c(C(=O)c2coc3ccc(O)cc23)c1,,"inconclusive: 29.1 µM [inhibitor, single point]"
Cc1ccc(Cn2cnc3ccccc32)cc1C,,active: 13 µM
Cn1cc(C(=O)c2ccc(Cl)cc2Cl)cc1C(=O)NN,inactive: -12%,
O=C1NC(c2cccs2)Nc2sc3c(c21)CCCC3 (stereo not given),,active: 4.11 µM
CC(C)c1nc2n(n1)C1(CCCCC1)[C@@H]1CCCC[C@@H]1N2,,"inconclusive: 18.4 µM [inhibitor, single point]"
COc1ccc(C2(c3ccc(O)cc3O)CC(c3ccccc3Cl)NC(=S)N2)cc1 (stereo not given),,"inconclusive: 2.31 µM [inhibitor, full curve]"
CCCCCCCC(=O)NC(Nc1ccc(S(N)(=O)=O)cc1)C(Cl)(Cl)Cl (stereo not given),,"inconclusive: 29.1 µM [inhibitor, single point]"
CCCCN(CC)S(=O)(=O)c1ccc(C(=O)Nc2nnc(CSC)o2)cc1,,"inconclusive: 25.9 µM [inhibitor, single point]"
CCOCCCNC(=S)NCCNc1nc2c(C)cccc2cc1C#N,,"inconclusive: 16.4 µM [inhibitor, partial curve]"
CN1CC2=Cc3ccccc3OC23Oc2ccccc2C=C3C1,,"inconclusive: 29.1 µM [inhibitor, single point]"
CC(NC(=O)[C@H](Cc1c[nH]c2ccccc12)NC(=O)[C@@H]1Cc2ccccc2CN1)c1ccccc1 (stereo not given in full),,"inconclusive: 29.1 µM [inhibitor, single point]"
CCOC(=O)c1c(NC(=O)CSc2cn(CCNC(=O)c3ccccc3OC)c3ccccc23)sc2c1CCC2,,"inconclusive: 29.1 µM [inhibitor, single point]"
CS(=O)(=O)N1CCN(C(=O)c2ccccc2F)CC1,inactive: 7.76%,
